Measurements: PubChem BioAssay AID624171 (National Center for Advancing Translational Sciences (NCATS), 2012)
Hit rate of the full screen: of about 410,000 compounds, about 1,200 (0.29%) were called active. The inconclusive results got no clear call from the source; some entries with a clear call stand among them for comparison. Calls come from the whole dose curve; as a rule, active = well fitted activation curve with a large enough effect; inconclusive = small, poorly fitted or top-dose-only effect; inactive = flat fitted curve, though single readings scatter. Potencies of inconclusive entries are doubtful fits and often do not repeat.

Assay: qHTS of Nrf2 Activators; note: nearly all actives have a fitted effect of over 65% in size; for activation: % of control where 0% means no effect
Settings: AREc32 ARE-luciferase reporter (MCF7-derived line), luminescence, 24 h; activation: at 46.1 µM (top of the series)
Text: Many diseases have some form of oxidative stress injury and ties to inflammation, causing a host of problems for the patient. The antioxidant response element (ARE) plays an important role in alleviating the harmful effects of oxidative stress. The antioxidant response element (ARE) is a transcriptional regulatory element involved in the activation of genes coding for a number of antioxidant proteins and detoxifying enzymes. These enzymes work in concert to protect tissues from oxidative insults and chemical toxicities in human hepatocytes and immune cells. The protective effects of ARE activation are primarily triggered through Nrf2 (NF-E2-related factor) binding to and activating AREs. It is known that Nrf2 controls the production of over 250 antioxidant and detoxification proteins (Hu et al., 2006), thereby protecting tissues by increasing cellular antioxidant content and suppressing inflammatory signaling pathways. The transcription factor Nrf2 is a central link between oxidative chemicals, such as phenolic antioxidants and electrophilic compounds, and the activation of ARE. Nrf2 levels are constitutively low as a consequence of its interaction with Keap1, which targets its degradation (Zipper and Mulcahy, 2002). Electrophiles react with key cysteine residues in Keap1, releasing Nrf2 and allowing its translocation to the nucleus. Once within the nucleus, Nrf2 complexes with coactivators such as p300, and binds to the AREs to induce gene transcription of cytoprotective enzymes, resulting in the prevention of toxicity. Activation of Nrf2 protects tissues by increasing cellular antioxidant content and suppressing inflammatory signaling pathways. Identifying novel and potent Nrf2 activators by using the AREc32 cell line to detect ARE activation by small molecules will lead to the identification and development of probes to study protective pathways in multiple tissues. These specific probes are essential to study the ARE pathway, and eventually to determine whether this pathway does activate genes that could protect against a host of diseases, including cardiovascular diseases, obesity, diabetes, Alzheimer's, and Parkinson's disease.
This project's aim is to identify novel and potent Nrf2 activators by using the AREc32 cell line to detect ARE activation by small molecules, which will lead to the identification and development of probes to study the ARE pathway.
NIH Chemical Genomics Center [NCGC]
NIH Molecular Libraries Probe Centers Network [MLPCN]
Assay Submitter (PI): Curtis Klaassen, University of Kansas Medical Center
5 uL of 1000 cells/well of AREc32_Fluc cells are seeded into 1536-well plate in OPTI-MEM medium with 5% FBS. The plates are incubated overnight at 37 deg C with 5% CO2. Then through pin tool transfer, 23 nL of compounds are added to each well before a 24 hr incubation at 37 deg C with 5% CO2. After the addition of 2.5 uL of Steady-Glo. the plates are kept at RT for 30 min, before they are read on the ViewLux.
Potency is the fitted concentration of half-maximal effect; tags give direction and shape of the fitted curve.

activation, inactive:
COc1cc(NC(=O)c2cc3nc(-c4ccc(C)cc4)cc(C(F)(F)F)n3n2)cc(OC)c1OC -0.432%
C=CCn1c(SCC(=O)NC2CCCC2)nc2scc(-c3ccco3)c2c1=O 8.21%
Cc1nc(-c2ccc(S(=O)(=O)N(C)Cc3ccccc3)cc2)co1 1.07%
O=C(O)c1[nH]c2ccccc2c1NS(=O)(=O)Cc1ccccc1 6.56%
CCc1ccc(N(CC(=O)NCc2ccco2)C(=O)CCC(=O)Nc2nccs2)cc1 -0.596%
CCN(C(=O)c1ccccc1F)c1nc(-c2ccc(OC)cc2)cs1 6.26%
CCCNC(=O)Cc1c(C)n(C(=O)c2ccc(Cl)cc2)c2ccc(OC)cc12 -0.18%
CN(Cc1ccccc1)C(=O)c1cccc(NC(=O)Cc2ccc(NC(=O)C3CCCN(C(=O)CCc4ccccc4)C3)cc2)c1 (configuration not stated) 6.22%
S=c1[nH]nc(-c2cc(-c3ccccc3)n[nH]2)n1/N=C/c1ccc(Cl)cc1 5.87%

Potency, inconclusive:
CC(=O)c1ccc(OCC(O)CN2CCN(CCN3C(=O)c4cccc5cccc(c45)C3=O)CC2)cc1 (configuration not stated) 25.1 µM [activator, partial curve, poor fit]
CC(=Nc1ccccc1)c1sc2ccccc2c1O 14.1 µM [activator, single point]
O=c1cc(-c2ccco2)oc2ccccc12 20 µM [activator, single point]
O=c1cc(/C=C/c2ccccc2)oc2ccccc12 2.24 µM [activator, full curve, poor fit]
Cc1cc(NC(=O)/C=C/C(=O)N(c2ccccc2C)C(C(=O)NC2CCCC2)c2ccc(F)cc2)no1 (configuration not stated) 15.8 µM [activator, single point]
Cc1ccc(Cn2c(/C=C/c3ccco3)nc3ccccc32)cc1 2.51 µM [activator, full curve, poor fit]
CN1CCN(C2=C(Cl)C(=O)C(c3cnc(N4CCCCC4)s3)=C(Cl)C2=O)CC1 17.8 µM [activator, single point]
C/C(=N\NC(=S)NCc1ccccc1)c1ccco1 6.31 µM [activator, partial curve]
O=C(/C=C/c1cccs1)NNC(=O)c1cccc([N+](=O)[O-])c1 22.4 µM [activator, single point]

Potency, active:
O=C1/C(=C\c2ccc(Br)o2)Cc2ccccc21 11.2 µM
COc1ccc(Nc2nc(C)nc3sc4c(c23)CCC4)cc1O 6.31 µM
CC(=O)c1cc(NC(=O)c2ccccc2)c(=O)oc1C 12.6 µM
O=C(OCn1ncc(Cl)c(Cl)c1=O)c1ccc(C(F)(F)F)cc1 10 µM
